Most values come without repeats; read them as rough.
Tests used:
CHO-K1 [1] = test: micronucleus frequency (% of nucleated events); higher = more micronuclei (genotoxic)
CHO-K1 [2] = test: hypodiploid nuclei frequency (% of nucleated events); higher = more hypodiploid events (aneugenic)
CHO-K1 [3] = test: relative survival (nuclei to bead ratio vs DMSO control) (% of vehicle control); higher = more surviving cells
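Throughout, for hypodiploid nuclei frequency (% of nucleated events): hypodiploid nuclei gated on a flow cytometer with 488 nm excitation after SYTOX Green staining, cultures at 37 °C, positive controls vinblastine without S9 and cyclophosphamide with S9.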
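Throughout, for micronucleus frequency (% of nucleated events): cells lysed with nuclei stained by SYTOX Green, then micronucleus-gated events counted against nucleated events by flow cytometry with 488 nm excitation.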
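Throughout, for relative survival (nuclei to bead ratio vs DMSO control): Lysed-cell nuclei stained with SYTOX Green and counted against counting beads by flow cytometry at 488 nm excitation, with vinblastine (no S9) and cyclophosphamide (plus S9) as positive controls.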

Cc1ccc(C(C)C)c(O)c1 [Thymol]
Settings | hypodiploid nuclei frequency, CHO-K1 [2] [%] | micronucleus frequency, CHO-K1 [1] [%] | relative survival, CHO-K1 [3]
concentration: 4.5 (µM), S9 metabolic activation: with S9, exposure time: 3-4 hours | 0.2 | 0.86 | 118
concentration: 4.5 (µM), S9 metabolic activation: without S9, exposure time: 24 hours | 0.4 | 1.14 | 125
concentration: 5.63 (µM), S9 metabolic activation: with S9, exposure time: 3-4 hours | 0.2 | 0.8 | 106
concentration: 5.63 (µM), S9 metabolic activation: without S9, exposure time: 24 hours | 0.5 | 1.3 | 124
concentration: 7.04 (µM), S9 metabolic activation: with S9, exposure time: 3-4 hours | 0.06 | 0.96 | 128
concentration: 7.04 (µM), S9 metabolic activation: without S9, exposure time: 24 hours | 0.6 | 1.12 | 112
concentration: 8.8 (µM), S9 metabolic activation: with S9, exposure time: 3-4 hours | 0.18 | 1 | 120
concentration: 8.8 (µM), S9 metabolic activation: without S9, exposure time: 24 hours | 0.46 | 1.06 | 106
concentration: 11 (µM), S9 metabolic activation: with S9, exposure time: 3-4 hours | 0.12 | 1.04 | 148
concentration: 11 (µM), S9 metabolic activation: without S9, exposure time: 24 hours | 0.74 | 1.54 | 121
concentration: 13.7 (µM), S9 metabolic activation: with S9, exposure time: 3-4 hours | 0.24 | 0.84 | 128
concentration: 13.7 (µM), S9 metabolic activation: without S9, exposure time: 24 hours | 0.5 | 1.16 | 150
concentration: 17.2 (µM), S9 metabolic activation: with S9, exposure time: 3-4 hours | 0.16 | 1.08 | 142
concentration: 17.2 (µM), S9 metabolic activation: without S9, exposure time: 24 hours | 0.54 | 1.26 | 116
concentration: 21.5 (µM), S9 metabolic activation: with S9, exposure time: 3-4 hours | 0.2 | 1.12 | 145
concentration: 21.5 (µM), S9 metabolic activation: without S9, exposure time: 24 hours | 0.64 | 1.1 | 133
concentration: 26.8 (µM), S9 metabolic activation: with S9, exposure time: 3-4 hours | 0.18 | 0.76 | 95
concentration: 26.8 (µM), S9 metabolic activation: without S9, exposure time: 24 hours | 0.42 | 1.42 | 90.2
concentration: 33.6 (µM), S9 metabolic activation: with S9, exposure time: 3-4 hours | 0.14 | 0.64 | 106
concentration: 33.6 (µM), S9 metabolic activation: without S9, exposure time: 24 hours | 0.3 | 1.2 | 107
concentration: 41.9 (µM), S9 metabolic activation: with S9, exposure time: 3-4 hours | 0.16 | 1 | 105
concentration: 41.9 (µM), S9 metabolic activation: without S9, exposure time: 24 hours | 0.58 | 1.3 | 130
concentration: 52.4 (µM), S9 metabolic activation: with S9, exposure time: 3-4 hours | 0.2 | 0.84 | 111
concentration: 52.4 (µM), S9 metabolic activation: without S9, exposure time: 24 hours | 0.72 | 1.42 | 97.5
concentration: 65.5 (µM), S9 metabolic activation: with S9, exposure time: 3-4 hours | 0.12 | 0.92 | 110
concentration: 65.5 (µM), S9 metabolic activation: without S9, exposure time: 24 hours | 0.52 | 1.54 | 92
concentration: 81.9 (µM), S9 metabolic activation: with S9, exposure time: 3-4 hours | 0.14 | 0.86 | 95.9
concentration: 81.9 (µM), S9 metabolic activation: without S9, exposure time: 24 hours | 0.68 | 1.5 | 103
concentration: 102 (µM), S9 metabolic activation: with S9, exposure time: 3-4 hours | 0.16 | 0.88 | 114
concentration: 102 (µM), S9 metabolic activation: without S9, exposure time: 24 hours | 0.9 | 1.64 | 109
concentration: 128 (µM), S9 metabolic activation: with S9, exposure time: 3-4 hours | 0.12 | 1.2 | 127
concentration: 128 (µM), S9 metabolic activation: without S9, exposure time: 24 hours | 0.94 | 1.56 | 103
concentration: 160 (µM), S9 metabolic activation: with S9, exposure time: 3-4 hours | 0.14 | 0.86 | 111
concentration: 160 (µM), S9 metabolic activation: without S9, exposure time: 24 hours | 1.08 | 1.94 | 106
concentration: 200 (µM), S9 metabolic activation: with S9, exposure time: 3-4 hours | 0.28 | 1.4 | 123
concentration: 200 (µM), S9 metabolic activation: without S9, exposure time: 24 hours | 1.38 | 1.78 | 91.1
